Data from PubChem BioAssay AID360 (National Center for Advancing Translational Sciences (NCATS), 2006).
Out of some 48,000 compounds screened, about 550 (1.1%) were called active. About 4% were inconclusive and are not listed. Cut-off read from the data, not from the text of the source: active = potency below about 15 µM; inconclusive = mostly about 16 µM to 33 µM; inactive = weaker than that. The list shows a part of the results.

Target: Lysosomal acid glucosylceramidase (Homo sapiens) (UniProt P04062)
Sequence of UniProt P04062 (P04062 whole entry, looked up): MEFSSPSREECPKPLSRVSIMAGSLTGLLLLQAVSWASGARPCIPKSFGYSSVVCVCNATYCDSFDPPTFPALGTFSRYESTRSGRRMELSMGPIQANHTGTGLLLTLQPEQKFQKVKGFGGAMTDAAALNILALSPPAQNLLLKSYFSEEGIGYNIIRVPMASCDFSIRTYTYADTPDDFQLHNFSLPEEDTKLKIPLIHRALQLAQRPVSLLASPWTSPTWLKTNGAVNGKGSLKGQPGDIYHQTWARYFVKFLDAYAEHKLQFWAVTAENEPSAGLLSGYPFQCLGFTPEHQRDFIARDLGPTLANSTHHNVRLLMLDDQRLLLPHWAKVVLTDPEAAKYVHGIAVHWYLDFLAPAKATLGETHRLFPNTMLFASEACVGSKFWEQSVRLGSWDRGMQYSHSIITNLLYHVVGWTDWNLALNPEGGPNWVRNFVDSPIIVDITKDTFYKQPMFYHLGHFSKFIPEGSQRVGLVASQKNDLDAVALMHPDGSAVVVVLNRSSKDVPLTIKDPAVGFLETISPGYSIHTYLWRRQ
Experiment: Glucocerebrosidase;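 note: the screen sought inhibitors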
Conditions: purified enzyme, resorufin glucoside fluorescence (screen aimed at inhibitors), 20 min; series mostly up to 77 µM
Method in brief: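 Normal human glucocerebrosidase (0.2 nM final) was assayed with resorufin β-D-glucopyranoside (30 uM final) in 50mM citric acid/KH2PO4, 10mM sodium taurocholate, 0.01% tween-20, pH 5.9. Compounds were titrated; fluorescence (Ex 548, Em 600) read after 20 min at RT.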
Potency is the fitted concentration of half-maximal effect.

Potency, inactive:
CCC(Sc1nc2c(c(=O)[nH]1)CCC2)C(=O)Nc1cccc(OC)c1 (centres undefined) > 76.9 µM
COCCOC(=O)C(C#N)c1nc2ccccc2nc1N1CCCC1 (centres undefined) > 76.9 µM
CCc1nc2oc3cc(OC)ccc3c(=O)c2c(=O)n1-c1ccccc1 > 76.9 µM
CCc1nn(CC(=O)NCCCN(CC)Cc2ccccc2)c(=O)c2cc3sccc3n12 > 76.9 µM
CCC(c1nnnn1CCc1ccccc1)N1CCN(c2ccc(OC)cc2)CC1 (centres undefined) > 76.9 µM
CC1Oc2ccccc2N(Cc2cccnc2)C1=O (centres undefined) > 76.9 µM
CC(C)(C)NC(=O)Cn1c(SCC(=O)N2CCCCCC2)nc2ccccc21 > 76.9 µM
Cc1[nH]n2c(=O)c(C#N)c(-c3ccccc3)nc2c1-c1ccccc1 > 76.9 µM
COc1cccc(-c2cc(C(=O)NCc3ccco3)no2)c1 > 76.9 µM
CCOC(=O)N1CCN(C(=O)c2cccc(OC)c2OC)CC1 > 76.9 µM
COc1cccc(C(=O)CSc2nnc(-c3ccco3)n2CC2CCCO2)c1 (centres undefined) > 76.9 µM
O=C(Oc1cc(=O)oc2ccccc12)c1ccco1 > 76.9 µM
Cn1c(=O)n(Cc2ccc(F)cc2)c(=O)c2c1nc1n2CCCN1Cc1ccccc1 > 76.9 µM
CCC(=O)Nc1ccc2c(c1)nc(CCN1CCN(C)CC1)n2C > 76.9 µM
O=C(c1ccco1)N1CCN(c2c(-c3ccccc3)c3cc(Cl)ccc3[nH]c2=O)CC1 > 76.9 µM
Cc1ccc(C)c(N(CC(=O)N(C)C)S(C)(=O)=O)c1 > 76.9 µM
c1cc(-c2noc(-c3ccc4c(c3)OCO4)n2)ccn1 > 76.9 µM
CCOC(=O)c1ccc(Oc2nc(NC)nc(SC)n2)cc1 > 76.9 µM
O=C(CCCN1CCOCC1)c1ccc2c(c1)OCCO2 > 76.9 µM
COc1ccccc1N1CCN(C(=O)Cn2nc(C(F)(F)F)c3c2CCC3)CC1 > 76.9 µM
CCOC(=O)CCc1c(C)c2ccc(OCC(=O)OC(C)C)cc2oc1=O
COc1ccc(-c2noc(CN3CCN(c4ccccc4F)CC3)n2)cc1OC > 76.9 µM
COC(=O)C1=C(C)OC(N)=C(C#N)C1c1cc(OC)c(OCC(N)=O)cc1Cl (centres undefined) > 76.9 µM
C=CCNC(=O)CCCOc1cc(C)ccc1C > 76.9 µM
COc1cccc(-c2cc(C(=O)Nc3ccc(OC)c(OC)c3)no2)c1 > 76.9 µM
CC(C)n1c(SCC(N)=O)nc2c1c(=O)n(C)c(=O)n2C > 76.9 µM
O=c1[nH]c(C(F)(F)F)nc2ccccc12 > 76.9 µM
O=C(NCc1ccc(F)cc1)c1cccc(S(=O)(=O)N2CCCC2)c1 > 76.9 µM
COc1ccc(C)cc1S(=O)(=O)NC1CCCC1 > 76.9 µM
Cc1occc1-c1nnc(SCC(=O)c2c[nH]c3ccccc23)n1C > 76.9 µM
CCn1nc(NC(=O)c2ccncc2)c2cc3ccccc3nc21 > 76.9 µM
Cn1c(C(=O)N2CCCc3ccccc32)cc2c(=O)n3ccccc3nc21 > 76.9 µM
CC(C)(C)c1cc(C(=O)NCc2ccco2)ccn1 > 76.9 µM
CC(C)C(=O)Nc1cc(=O)[nH]c2ncnn12 > 76.9 µM
Cc1ccccc1-n1c(-c2ccncc2)n[nH]c1=S > 76.9 µM
Cc1cc(NC2C3CC4CC(C3)CC2C4)n2nnnc2n1 (centres undefined) > 76.9 µM
Cc1cc(C)nc(NC2=NC3CCCCC3N2)n1 (centres undefined) > 76.9 µM
Cc1ccc(N2CCN(CCc3nc4cc(NC(=O)c5ccco5)ccc4n3C)CC2)cc1 > 76.9 µM
COc1ccc(C)cc1C(=O)C1CC(C(=O)O)C(C)(C)C1C (centres undefined) > 76.9 µM
COc1ccc2[nH]c(=O)c(CN(CCCN(C)C)C(=O)Nc3ccccc3)cc2c1 > 76.9 µM
COc1ccc(CCN(C(=O)c2ccc(F)cc2)C2=CC3CCC(C2)N3C)cc1OC (centres undefined) > 76.9 µM
CCOC(=O)c1cc(CNC(=O)c2c(C)oc3c2CCCC3)c(C)o1 > 76.9 µM
Cc1ccccc1NC(=O)CSc1nc(N)c(C#N)c(-c2cccs2)c1C#N > 76.9 µM
CCOC(=O)C(CO)(NC(C)=O)C(=O)OCC > 76.9 µM
Cc1occc1-c1nnc(SCC(=O)Nc2ccccc2N2CCCCC2)n1C > 76.9 µM
COc1ccc(-n2c(SCC(=O)N3CCCCC3C)nnc2-c2cccnc2)cc1 (centres undefined) > 76.9 µM
CCCCN1C(=O)C2C(C(=O)Nc3cccc(OC)c3)C3C=CC2(O3)C1C(=O)NC1CCCCC1C (centres undefined) > 76.9 µM
COC(=O)C1C(O)=C(C=NC2CCCCC2)C(=O)CC1(C)C (centres undefined) > 76.9 µM
Cc1nc2ccc3nc(NC(=O)c4ccco4)sc3c2s1 > 76.9 µM
Nc1c(S(=O)(=O)c2cccs2)c2nc3ccccc3nc2n1CC1CCCO1 (centres undefined) > 76.9 µM
CCn1nnnc1SCC(=O)c1cc(OC)ccc1OC > 76.9 µM
O=C1C(=O)N(CCCN2CCOCC2)C(c2ccccn2)/C1=C(\O)c1ccc2c(c1)OCCO2 (centres undefined) > 76.9 µM
O=C(CCCc1nc2ccccc2s1)Nc1nccs1 > 76.9 µM
COCCCN1C(=O)c2ccccc2C1C(=O)NC1CCCCCC1 (centres undefined) > 76.9 µM
Cc1oc(CSCC2CCCO2)cc1C(=O)O (centres undefined) > 76.9 µM
COCCCNC(=O)c1ccc(N(C)S(C)(=O)=O)cc1 > 76.9 µM
Cc1cccc(CC2CC(=O)N(C3CCCCC3)C2=O)c1 (centres undefined) > 76.9 µM
O=C(c1ccc2c(c1)N(Cc1ccccc1)C(=O)CS2)N1CCOCC1 > 76.9 µM
CCN(CC)CCN1C(=O)c2oc3ccccc3c(=O)c2C1c1ccccc1 (centres undefined) > 76.9 µM
